Experimental data as given in the BET-seq Pho4 binding data (Le et al. 2018).
This is one part of the list. The energies were worked out here from pooled read counts, against the library average; single values are noisy.

target: T1, Pho4 (S. cerevisiae) (UniProt P07270); experiment: relative binding free energy (BET-seq); higher = weaker binding; conditions: reference: library average
T1 sequence: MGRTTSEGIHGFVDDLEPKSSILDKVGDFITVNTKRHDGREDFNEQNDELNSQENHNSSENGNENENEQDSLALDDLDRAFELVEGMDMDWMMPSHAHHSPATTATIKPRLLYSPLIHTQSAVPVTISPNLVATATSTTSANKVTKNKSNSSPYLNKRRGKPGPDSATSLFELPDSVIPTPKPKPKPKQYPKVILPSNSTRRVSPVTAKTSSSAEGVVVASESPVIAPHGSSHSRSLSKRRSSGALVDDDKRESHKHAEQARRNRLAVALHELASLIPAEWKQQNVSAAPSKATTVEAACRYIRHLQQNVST

Row | Sequence | relative binding free energy
1 | CAGATCACGTGGAGGT | 0.19 kcal/mol
2 | ATGGACACGTGGGTGG | -0.13 kcal/mol
3 | GTAGTCACGTGTTCGA | 0.05 kcal/mol
4 | ATGATCACGTGTGTGT | 0.15 kcal/mol
5 | TTGCGCACGTGTTATA | -0.1 kcal/mol
6 | TCTTGCACGTGCTGTG | -0.04 kcal/mol
7 | AGAGCCACGTGTAGGG | -0.2 kcal/mol
8 | GAGGTCACGTGTTGGT | 0.22 kcal/mol
9 | TGGTCCACGTGTAGTG | 0.02 kcal/mol
10 | TATTTCACGTGCGTGC | 0.18 kcal/mol
11 | TTTAACACGTGTGGCG | 0.11 kcal/mol
12 | GTTGTCACGTGTCGAA | 0.19 kcal/mol
13 | TTGGGCACGTGTTGTG | -0.1 kcal/mol
14 | GGTGGCACGTGGGTGC | -0.2 kcal/mol
15 | CGAATCACGTGTGGGA | 0.25 kcal/mol
16 | CGGTGCACGTGGTGCG | -0.1 kcal/mol
17 | TTCAACACGTGTTGCG | 0.22 kcal/mol
18 | CAGGCCACGTGTGGGG | -0.12 kcal/mol
19 | TGTGCCACGTGTATTG | -0.08 kcal/mol
20 | TAATGCACGTGATTTA | -0.08 kcal/mol
21 | TCAGGCACGTGATGTG | -0.02 kcal/mol
22 | TGTACCACGTGCAGGG | -0.1 kcal/mol
23 | TGTTTCACGTGGGACT | 0.24 kcal/mol

Row | Sequence | relative binding free energy
24 | GATGTCACGTGTGCTG | 0.19 kcal/mol
25 | GATGGCACGTGGGATA | -0.14 kcal/mol
26 | GTATGCACGTGGGCGG | -0.16 kcal/mol
27 | TGTTGCACGTGGGTCG | -0.2 kcal/mol
28 | TGTTACACGTGAGGTG | 0.23 kcal/mol
29 | AAGAGCACGTGGCGGT | -0.16 kcal/mol
30 | TTGAGCACGTGAGTGA | 0.14 kcal/mol
31 | ATTGACACGTGGCGAG | 0.07 kcal/mol
32 | CAGTGCACGTGTTAGG | -0.08 kcal/mol
33 | ATGAGCACGTGGACGT | 0 kcal/mol
34 | GCGTACACGTGGTTGT | 0.07 kcal/mol
35 | TAATTCACGTGGGAGG | 0.14 kcal/mol
36 | AAGTACACGTGCAGGT | 0.04 kcal/mol
37 | TCTGTCACGTGATGGT | 0.2 kcal/mol
38 | TCGGACACGTGTAGGC | 0.26 kcal/mol
39 | ATAAACACGTGATTTG | 0.11 kcal/mol
40 | GTGAACACGTGGTGTA | -0.04 kcal/mol
41 | GAGTTCACGTGTGTGT | 0.34 kcal/mol
42 | TCTGTCACGTGGAGTA | 0.07 kcal/mol
43 | ATTGTCACGTGAAGGA | 0.32 kcal/mol
44 | TGGTACACGTGCTCGT | -0.04 kcal/mol
45 | GACGACACGTGTGGGT | 0.02 kcal/mol
46 | AGACTCACGTGTTGGT | 0.22 kcal/mol

Row | Sequence | relative binding free energy
47 | TCAATCACGTGGCGGG | 0.21 kcal/mol
48 | TAAATCACGTGGGGGG | 0.04 kcal/mol
49 | AGTAACACGTGTGAGA | 0.07 kcal/mol
50 | TAACGCACGTGAGGGT | 0.16 kcal/mol
51 | AGACGCACGTGGATGG | -0.07 kcal/mol
52 | TGAAGCACGTGTAGAG | 0.02 kcal/mol
53 | GTCTTCACGTGTTTGG | 0.34 kcal/mol
54 | TCAGTCACGTGGTCGT | 0.06 kcal/mol
55 | CAGAACACGTGGGTGG | -0.17 kcal/mol
56 | GTTGGCACGTGAAAAA | 0.28 kcal/mol
57 | AGCTGCACGTGGTTTT | -0.09 kcal/mol
58 | TACATCACGTGATGGT | 0.09 kcal/mol
59 | AGAGGCACGTGCATGG | -0.25 kcal/mol
60 | TCGGGCACGTGACTTG | 0.07 kcal/mol
61 | ACAGGCACGTGATATG | 0.11 kcal/mol
62 | GATGTCACGTGGATTT | 0.21 kcal/mol
63 | GTGTCCACGTGCGGTG | 0.09 kcal/mol
64 | GAGGGCACGTGTTTGC | 0.03 kcal/mol
65 | CGTGGCACGTGGCGGG | -0.19 kcal/mol
66 | GCCGGCACGTGGTGTG | -0.28 kcal/mol
67 | GTTGCCACGTGAAGTG | 0.23 kcal/mol
68 | TCTTTCACGTGGGTCT | 0.12 kcal/mol
69 | GAGAGCACGTGCTGGT | 0.05 kcal/mol

Row | Sequence | relative binding free energy
70 | TTTTGCACGTGTGGCT | 0.11 kcal/mol
71 | GGCTGCACGTGAGTTT | 0.34 kcal/mol
72 | ATTATCACGTGGTGAT | 0.04 kcal/mol
73 | CTATTCACGTGTTGTC | 0.31 kcal/mol
74 | TCGAACACGTGGGGGG | -0.17 kcal/mol
75 | TTTGGCACGTGTGGTA | -0.02 kcal/mol
76 | TGTAGCACGTGATCGT | -0.03 kcal/mol
77 | ATCTTCACGTGAGTGT | 0.38 kcal/mol
78 | TGTTTCACGTGCGTTG | 0.27 kcal/mol
79 | AGGTACACGTGTAATG | 0.04 kcal/mol
80 | GTTAACACGTGGGGGA | -0.06 kcal/mol
81 | ATGCTCACGTGGGTCG | 0.06 kcal/mol
82 | TTCTTCACGTGTGAAT | 0.24 kcal/mol
83 | TGGGTCACGTGGATAT | 0.2 kcal/mol
84 | ATGTTCACGTGCTTAT | 0.16 kcal/mol
85 | GCGTGCACGTGTTATT | 0.04 kcal/mol
86 | TTAGACACGTGTTGGT | 0.01 kcal/mol
87 | GGGGGCACGTGTTTGC | -0.04 kcal/mol
88 | AGTTCCACGTGGTAGT | 0.03 kcal/mol
89 | GGTTGCACGTGGCTGC | 0.05 kcal/mol
90 | TTTGACACGTGAGCGG | 0.2 kcal/mol
91 | GGTTGCACGTGATATG | 0.06 kcal/mol
92 | TGATTCACGTGATATG | 0.32 kcal/mol

Row | Sequence | relative binding free energy
93 | GTTTCCACGTGGTGGG | 0.13 kcal/mol
94 | ACGGTCACGTGGTAGA | 0.08 kcal/mol
95 | AAAGTCACGTGGGCTA | 0.02 kcal/mol
96 | TGTGTCACGTGCCTGT | -0.06 kcal/mol
97 | GGATGCACGTGAAGGG | 0.26 kcal/mol
98 | CGTAACACGTGAGGGT | 0.29 kcal/mol
99 | AGAGGCACGTGTGTCA | -0.05 kcal/mol
100 | ACAGGCACGTGGTTTT | -0.12 kcal/mol
101 | ATTTCCACGTGTGGCG | 0.22 kcal/mol
102 | ATGGGCACGTGGCTGT | -0.16 kcal/mol
103 | AATAGCACGTGTCGTT | -0.1 kcal/mol
104 | GGCGTCACGTGTGGAC | 0.25 kcal/mol
105 | TATTTCACGTGGCTAG | 0.29 kcal/mol
106 | CTATTCACGTGTTCGT | 0.3 kcal/mol
107 | GGGGGCACGTGATCGG | -0.07 kcal/mol
108 | TATTACACGTGAGGTT | 0.3 kcal/mol
109 | TTTAACACGTGGGCGC | -0.01 kcal/mol
110 | GGAGTCACGTGTGCCG | 0.15 kcal/mol
111 | CGATTCACGTGCGGGG | 0.08 kcal/mol
112 | GTGTACACGTGTTGCT | 0.03 kcal/mol
113 | TGGTGCACGTGGGGCG | -0.08 kcal/mol
114 | CAGGGCACGTGCCGGT | -0.08 kcal/mol
115 | AAGGTCACGTGTGTAA | 0.17 kcal/mol
